72 compounds from PubChem BioAssay AID488969 (Vanderbilt High Throughput Screening Facility, 2010) can be followed below.

In all, about 110,000 compounds were measured (“z-score”: median about -0.1, highest 2% from about 2 on). The list shows a part of the results. Activity calls are given as the source filed them.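 The calls were made as follows: active = z-score in the third read window above 3 or below -3; inactive = the rest.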

The assay concerns the target Metabotropic glutamate receptor 8 (Rattus norvegicus) (UniProt P70579). Briefly: rat mGluR8 modulators via GIRK flux, primary screen, cell-based, thallium flux, HTS (AID 488969). As to conditions: HEK293 rat mGluR8, GIRK (G protein-gated inwardly rectifying potassium channel) thallium flux, FluoZin2; at 10 µM; stronger effect = higher value; submaximal glutamate (EC20) added with thallium.
UniProt P70579, sequence (P70579 whole entry, looked up): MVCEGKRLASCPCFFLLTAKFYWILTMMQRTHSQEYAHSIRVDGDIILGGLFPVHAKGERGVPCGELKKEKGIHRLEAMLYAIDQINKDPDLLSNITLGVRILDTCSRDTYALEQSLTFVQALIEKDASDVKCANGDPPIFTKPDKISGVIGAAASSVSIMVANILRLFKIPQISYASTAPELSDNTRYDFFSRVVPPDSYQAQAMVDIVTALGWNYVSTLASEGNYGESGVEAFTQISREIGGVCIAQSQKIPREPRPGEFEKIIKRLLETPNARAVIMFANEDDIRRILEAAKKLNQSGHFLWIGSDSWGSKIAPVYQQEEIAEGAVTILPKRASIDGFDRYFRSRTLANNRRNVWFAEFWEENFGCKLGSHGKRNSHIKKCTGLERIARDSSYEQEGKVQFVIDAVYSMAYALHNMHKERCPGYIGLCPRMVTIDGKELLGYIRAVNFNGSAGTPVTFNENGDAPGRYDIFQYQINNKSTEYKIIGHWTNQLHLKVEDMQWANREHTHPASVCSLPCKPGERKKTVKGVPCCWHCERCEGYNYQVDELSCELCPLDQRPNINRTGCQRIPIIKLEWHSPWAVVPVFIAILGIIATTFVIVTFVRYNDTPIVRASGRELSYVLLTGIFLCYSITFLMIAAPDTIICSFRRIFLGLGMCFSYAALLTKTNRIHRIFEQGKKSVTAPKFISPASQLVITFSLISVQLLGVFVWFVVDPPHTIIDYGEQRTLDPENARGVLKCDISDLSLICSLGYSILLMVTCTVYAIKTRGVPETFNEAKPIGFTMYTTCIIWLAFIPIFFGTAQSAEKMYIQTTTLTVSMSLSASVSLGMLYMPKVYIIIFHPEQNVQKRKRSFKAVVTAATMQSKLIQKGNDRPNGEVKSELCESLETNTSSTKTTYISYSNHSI
As to `CCC(C)NC(=O)CCS(=O)(=O)c1ccc(Br)s1` (configuration not stated), the z-score was -0.0618.

The compound `Fc1ccc(CSc2ccc(-c3ccco3)nn2)cc1` returned a z-score of 0.169. Take `CCCC1=C(C(=O)OCC)C(c2ccc(NC(C)=O)cc2)NC(=O)N1` (configuration not stated): the z-score is -0.453.

The compound `Cc1ccc(Nc2nnc(SCC(=O)NCCN3C(=O)CSC3=O)s2)cc1C` had a z-score of -0.143. As for `CCCC(=O)N(C)c1nnc(-c2ccc(OC)cc2)s1`, the z-score was -0.0873.

As for `COc1cccc(NC(=O)COc2ccccc2C(N)=O)c1`, the z-score is -0.308. The result for `O=C1c2ccccc2C(=O)N1CCc1csc(-c2cccc(Cl)c2)n1` reads 0.0755. The result for `Cc1ccccc1-c1nc(CN2CCCC(C(=O)NCCCN3CCOCC3)C2)c(C)o1` (configuration not stated) reads -0.359; that for `CCN(CC)c1nc2ccccc2c(N)c1-c1ccccc1`, 0.0637; that for `O=C(CSc1nnnn1C1CCCCC1)NCCc1ccccc1`, -0.0619.

`O=C(CSc1nc2ccccc2o1)N1c2ccccc2Sc2ccccc21` returned a z-score of 0.265. As to `COc1ccc(CCNC(=O)C(C)Sc2ccccc2)cc1OC` (configuration not stated), the z-score was -0.118. The result for `Cc1ccc2nsnc2c1S(=O)(=O)NC1CC1` reads 0.516; that for `O=C(NCc1ccc2c(c1)OCO2)C1CC(c2ccccc2O)=NO1` (configuration not stated), 0.36.

Compound `CC(=O)N1CCN(c2ccc(NC(=O)c3ccc(C)cc3)cc2)CC1` came in with a z-score of 0.245. `Cc1cc(NC(=O)CCC(=O)N(c2ccccc2)C(C(=O)NCC2CCCO2)c2cccnc2)no1` (configuration not stated) showed a z-score of -0.0594. The result for `Cc1ccc(S(=O)(=O)CC(=O)c2ccc(C)c([N+](=O)[O-])c2)cc1` reads -0.799; that for `O=C1c2ccccc2NC(c2ccccc2)N1c1ccc(O)cc1` (configuration not stated), -0.733.

As for `c1ccc(NC2=Nc3ccccc3CS2)cc1`, the z-score came to 0.634. For `CC(C)CN(CC(C)C)C(=O)Cc1coc2ccc3ccccc3c12` the value was 0.549; for `Cc1cc(C)n(C(=O)CCN2C(=O)c3ccccc3C2=O)n1`, -0.0349; for `CN(C)c1nc2c(c(=O)n(C)c(=O)n2C)n1Cc1ccccc1`, -0.149. The result for `COc1ccc(-c2nnc(SCC(=O)NC(C)c3ccccc3)o2)cc1` (configuration not stated) reads -0.309. `O=C1CCCC/C1=C/Nc1ccc(S(=O)(=O)Nc2ncccn2)cc1` displayed a z-score of -0.108.

`CCNS(=O)(=O)c1ccc(CCC(=O)NC2CCCC2)cc1` had a z-score of -0.104.

On to `Cc1ccc(/C=N/N=C/c2ccc(C)cc2)cc1`, for which the z-score was 0.118. For the compound `COc1ccc(N2C(=O)/C(=C/c3cccs3)NC2=S)cc1`, the z-score amounted to 1.07. The result for `CCCCn1c(SCc2cccnc2)nc2c1c(=O)n(C)c(=O)n2C` reads -0.459; that for `CC(=O)Nc1ccccc1NC(=O)CC(C)(C)C`, -0.0428.

As to `CCN(CC)CCNC(=O)c1cn(CC)c2ccc(S(=O)(=O)N(C)C)cc2c1=O`, the z-score is -0.0651. In turn, `Cc1nc(NNC(=O)c2ccc(Cl)cc2Cl)cc(-c2ccccc2)n1` had a z-score of 0.141.

`COc1cc(/C=N/NC(=O)Nc2cccc3nsnc23)cc(OC)c1OC`: the z-score was determined as 0.0319. The result for `COc1ccc(CCNC(=O)C2CCN(c3ccc(N4CCOCC4)nn3)CC2)c(OC)c1` reads -0.106; that for `Cc1ccc(C(=O)/C=C/Nc2ccccn2)cc1`, 0.718; that for `CC1=C(n2nnc3ccccc32)C(c2ccccc2)C(C#N)=C(N)O1` (configuration not stated), active: 3.38.

`CCOC(=O)c1c(C)[nH]c(C(=O)CSc2nnc(C3CC3)n2N)c1C` showed a z-score of -1.17. The result for `CC1S/C(=C(\C#N)C(=O)NCc2ccco2)N(c2ccc(F)cc2)C1=O` (configuration not stated) reads -0.184.

On to `CCOC(=O)Cc1csc(NC(=O)CSc2nnnn2-c2ccc(CC)cc2)n1`, for which the z-score was 1.16. For `Cc1csc(NC(=O)C(Cc2ccccc2)n2cccc2)n1` (configuration not stated) the value was active: 5.2; for `COc1cc(OC)nc(Oc2ccccc2C(=O)Oc2cccc(C)c2)n1`, -0.386.

The compound `CC1CCc2nc(NC(=O)CCSc3ccccc3)sc2C1` (configuration not stated) displayed a z-score of 0.184.

As for `CSc1nnc(-c2cccs2)n1-c1ccccc1`, the z-score is -0.228. The result for `COc1ccccc1NS(=O)(=O)c1cccc(NC(=O)c2ccc3ccccc3n2)c1` reads 0.343. For `O=S(=O)(c1ccccc1)c1nc(-c2ccco2)oc1NCCN1CCOCC1` the value was -0.00728; for `Cc1ccc(C(=O)NC(=S)Nc2ccc(S(=O)(=O)N(C)c3ccccc3)cc2)cc1`, 0.95. The result for `CCN(CC)CCn1cnc2c([nH]c3cccc(OC)c32)c1=O` reads -0.0646; that for `O=C(NC1CCCC1)c1ccc(COCC(F)(F)C(F)F)o1`, -0.0137.

`COC(=O)CNC(c1ccccc1)c1cc(C)ccc1NC(=O)CNC(=O)OCc1ccccc1` (configuration not stated): the z-score was -0.608.

`O=C(CN1C(=O)CC(c2ccco2)Sc2ccccc21)NCC1CCCO1` (configuration not stated) displayed a z-score of -0.326. As for `CCCNC(=O)COC(=O)/C=C/c1ccco1`, the z-score was -0.162. For `COc1ccccc1N1CCN(C(=O)COc2cc(C)ccc2C)CC1` the value was -0.57; for `CCCCC(=O)Nc1ccc(C(=O)NNC(=O)c2ccc(C)c(Br)c2)cc1`, -0.00519. `O=C(Nc1sc2c(c1C(=O)c1ccccc1)CCCC2)c1cccnc1`: the z-score was -0.389. For `Cc1cc(C)c2c(=O)[nH]c(=O)n(Cc3ccccc3)c2n1` the value was -1.72. For `CCCOC(=O)C1C2C=CC3(CN(c4cccc(Cl)c4)C(=O)C13)O2` (configuration not stated) the value was 0.308; for `O=C1Cn2c(nc3ccccc32)N1c1ccccc1F`, -0.0143. The result for `Clc1ccc(C2=NNC(=NCC3CCCO3)SC2)cc1` (configuration not stated) reads -0.14; that for `CCOc1ccc(Nc2nc(Cc3nnc(SCC(=O)c4ccc(C)cc4)o3)cs2)cc1`, 0.418. With `CCc1c(O)nc(SCC(=O)Nc2ccccc2)n(-c2ccccc2)c1=O`, the z-score is 0.0843.

As for `Cc1ccc(CN2CC34C=CC(O3)C(C(=O)NCc3ccco3)C4C2=O)cc1` (configuration not stated), the z-score was 1.13.

`CCOC(=O)c1sc2nc(SCC#N)n(CCCN3CCCC3=O)c(=O)c2c1C`: the z-score is -0.259. The result for `CCOC(=O)c1c(NC(=O)c2ccco2)sc(C(=O)N2CCCC2)c1C` reads -1.56; that for `COc1cccc(CNC(=O)C(=O)NCC(c2ccco2)N2CCOCC2)c1` (configuration not stated), -0.165. For `Cc1cc(NC(=O)/C(C#N)=C/c2ccco2)n(-c2ccccc2)n1` the value was -0.178; for `O=C(c1ccc(Cl)cc1)N1CCN(c2ccc(F)cc2)CC1`, -0.107; for `O=C(CCCc1nc(-c2ccccc2Cl)no1)NC1CCCCC1`, -0.158. The result for `N/C(Cc1cccs1)=N\OC(=O)COc1ccccc1` reads -1.06; that for `Cc1cccc2cc(CN(Cc3ccccc3)C(=O)N3CCOCC3)c3nnnn3c12`, -0.613.

Take `O=C(CCCn1c(=O)[nH]c2cc(Cl)ccc2c1=O)NCCCN1CCCC1=O`: the z-score amounted to 0.338. For `CCc1cc(C(=O)Cc2cnn(-c3ccccc3)c2)c(O)cc1O` the value was 0.114; for `C/C(=N/NC(=O)CSc1ccccn1)c1ccc([N+](=O)[O-])cc1`, -0.329; for `Cc1ccc(CCNC(=O)CCSCc2ccc(Cl)cc2)cc1`, 0.898.
